Measured values taken from patent US8247569B2, “Cyclohexane derivative and pharmaceutical use thereof” (Toray Industries, Inc., priority 2008, dated 2012).

What was measured:
[1] = test system: mouse model having pain due to STZ-induced diabetic neuralgia; assay: mouse model of pain due to streptozotocin (STZ)-induced diabetic neuralgia, von Frey test; format: in vivo; settings: oral administration of 1 and 10 mg/kg; 1 hour after administration; vehicle 0.5% methyl cellulose; Williams test; FIG. 5
Procedure: STZ (250 mg/kg) or physiological saline was intraperitoneally administered to male ICR mice of 5 weeks old, to prepare mice having diabetes and a control group thereof. The mice having diabetes herein means mice whose blood glucose level at full feeding is not less than 350 mg/dL when a small amount of blood was collected from the tail vein 6 days after administration of STZ and the blood glucose level was measured using a blood glucose meter Precision Xceed and an electrode for measurement of blood glucose Smartblue (Abbott).
Seven days after the administration of STZ, the von Frey test was carried out for the mice having diabetes as in the above-described case of evaluation of neuropathic pain, and individuals showing a total score of 5 or higher were selected as individuals having the diseased state of pain due to diabetic neuralgia. The selected individuals were divided into groups such that the total score becomes even among the groups, followed by oral administration of test compounds. One hour after the oral administration, the von Frey test was further carried out, and the obtained value was used as an index of the analgesic effect. As a positive control, pregabalin (10 mg/kg, oral administration) was used.
As the vehicle of the test compound suspension, 0.5% methyl cellulose was used. […]

[2] = human liver microsomal stability assay; format: in vitro ADME; settings: liver microsomes, pH 7.4, human liver microsomes 0.5 mg/mL, test compound 2 μmol/L, 37° C., 0-30 min, read-out: Hepatic intrinsic clearance, Human
Procedure: (§1) A liver microsomal stability assay, which is known to be an in vitro assay for evaluation of the stability of a compound against hepatic metabolism, was carried out to evaluate the stability of Compound (I) against human and mouse hepatic metabolism.
(§2) A total of 4 times of experiments were carried out for the combinations of the compound of Example 2-B or the compound of Comparative Example 29 as the test compound and human liver microsomes (Xenotech) or mouse liver microsomes (Xenotech) as the liver microsomes.
(§3) The respective reagents to be used for the liver microsomal stability assay were prepared as follows. That is, an appropriate amount of D-glucose 6-phosphate disodium salt (hereinafter referred to as G6P) was dissolved in distilled water at 100 mmol/L, to prepare 100 mmol/L aqueous G6P solution. In 5 mL of distilled water, 1000 units of Glucose 6-phosphate dehydrogenase from Yeast (hereinafter referred to as G6PDH) was dissolved, to prepare 200 units/mL aqueous G6PDH solution. An appropriate amount of MgCl2 was dissolved in distilled water at 100 mmol/L, to prepare 100 mmol/L aqueous MgCl2 solution. […]

[3] = mouse liver microsomal stability assay; format: in vitro ADME; settings: pH 7.4; mouse liver microsomes 0.5 mg/mL; test compound 2 μmol/L; 37° C., 0-30 min; read-out: Hepatic intrinsic clearance, Mouse
Procedure: as §1, §2, §3

[4] = test system: mouse sciatic nerve-ligation model (Seltzer model); assay: mouse partial sciatic nerve ligation model (Seltzer model), von Frey test; settings: oral administration of Example 2-B and Example 62 in amounts of 0.3 and 1.0 mg/kg, respectively; FIG. 2, FIG. 3

COc1ccc(-n2nc(C3(O)CCC(O)CC3)cc2-c2ccc(C)cc2)cc1 (stereo not drawn) [Example 2-B, 1-(1-(4-methoxyphenyl)-5-(p-tolyl)-1H-pyrazol-3-yl)cyclohexane-cis-1,4-diol]
total score of the von Frey test vs STZ administration+vehicle group [1]: significantly improved
microsomal CLint at 2 μmol/L [2]: 14.8 µL/min/mg
microsomal CLint at 2 μmol/L [3]: 16.8 µL/min/mg
analgesic effect 3 hours after the oral administration (von Frey test) [4]: a strong analgesic effect was maintained
